Sequences with one replicate were seen in a single cluster, so their values are uncertain.
System: ATP
Experiment: switch fluorescence ratio, 500 uM ATP over buffer (Cy3 cluster intensity, sum of 5 cycles each) (fold (ratio)); higher = stronger signal-on switching upon ATP binding; sequences stand for … in TCGTCGGCAGCGTCAGATGTGTATAAGAGACAGTTTTTTTTTTTTTTTTTTTTTTTTT…TC
Details: aptamer strand: ATP DNA aptamer (quencher-CACCTGGGGGAGTATTGCGGAGGAAGG + anchor), 100 nM annealed; ATP concentration: 500 uM; one replicate
Procedure, shortened: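 Between each of five buffer/ATP cycles, the flow-cell was stripped with NaOH and re-annealed. Each cycle imaged Cy3-labelled switching-strand clusters, annealed to 100 nM quencher-labelled ATP aptamer on a modified Illumina MiSeq flow-cell, first in selection buffer and then after 15 min with 500 uM ATP at 22 °C. The fluorescence ratio is summed target-cycle over summed buffer-cycle Cy3 intensity per cluster, averaged per switch-domain sequence, with clusters outside 100-1000 RFU excluded.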
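Further: ATP exposure 15 min at 22 °C before imaging.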

| Sequence | switch fluorescence ratio |
| --- | --- |
| GGAGTCTACT | 1.01 |
| ATATCTTCAA | 0.971 |
| AGATGACAGC | 0.966 |
| GATTAGTTTC | 1.02 |
| TCATCGGGGG | 1.02 |
| CAGCTTCCTG | 1.09 |
| GTTGTCCGGC | 0.954 |
| TCTCCGGTAA | 4.58 |
| CCGCTTTTTG | 1.25 |
| ATAAGGTG | 1.45 |
| TATTAAAATG | 0.969 |
| CTGGGGGGAC | 1.62 |
| TTCGGCGGGG | 1.03 |
| CGCGGGTCGG | 0.984 |
| TTCCCTTGGA | 1.04 |
| CCACTGGAAG | 0.99 |
| AGATGCTGAG | 1 |
| GGATTCACGT | 0.995 |
| AAATTAACGG | 1.01 |
| ATGATACATG | 1 |
| ATATGACTGT | 0.964 |
| ATCTGCACTA | 1.31 |
| GAGTGTAGAA | 1.01 |
| AAAATGCCTT | 0.981 |
| TACTGCGGTT | 1.01 |
| CGGAATTCAT | 0.96 |

| Sequence | switch fluorescence ratio |
| --- | --- |
| GCTTATCCA | 0.963 |
| GGAGCCTGT | 1.02 |
| ATTTGACAAC | 0.976 |
| TTCGATGAAT | 1.02 |
| GTGAGTTAAA | 1.01 |
| CTATACGACC | 2.53 |
| TGGCCGTGTG | 0.991 |
| TTTACAATCT | 1.04 |
| CAATTGGTAG | 0.986 |
| GCCACTGTCT | 0.948 |
| ATGCGGGGCC | 0.934 |
| AGGAGGTCGC | 0.988 |
| CAAGGCACTA | 1.07 |
| AAGTCGCTAT | 0.971 |
| AGTTAGCGAC | 0.994 |
| TAAAGCGGGG | 1.01 |
| TCAGAACTAT | 0.991 |
| TACAGTACGC | 1.38 |
| TATCGGGCTA | 1.02 |
| GATGCCAGGT | 1.27 |
| CCGAAGGGAA | 1.04 |
| CGCAAAAACG | 1.13 |
| TCACTCTGTG | 1.01 |
| GAGGTTGCG | 0.975 |
| CTTCAAAACC | 1.06 |
| AGGTTCGGAA | 1.01 |

| Sequence | switch fluorescence ratio |
| --- | --- |
| CTTGGCGTGT | 1.02 |
| TCTCTACCGA | 1.05 |
| AAACACTGTT | 1.14 |
| GCAGTCAGGA | 0.941 |
| TTACAGAGTC | 1.02 |
| TAATAGCCAG | 0.973 |
| TACCGAACGG | 1.04 |
| ATTCTACATA | 1.03 |
| TTTTATTCA | 1 |
| TGACTCCG | 1.08 |
| CTGTATGTGC | 1.05 |
| ACTGCTCCCG | 1.05 |
| CAACGAAAGA | 1.04 |
| CATTCATTTG | 1.01 |
| AGCGGCCGGA | 1.02 |
| TAGGACACTG | 1.02 |
| GAATTCTGCT | 1 |
| GTTTGCAGCC | 0.995 |
| TATGCTCCGA | 1.07 |
| GCCGGAGGG | 1.02 |
| TTACTGAGCT | 1.06 |
| CGACCCGTTA | 2.03 |
| TATGGCTATT | 1.01 |
| GTTGCGCATG | 1.03 |

— the supplement of paper PMC10126150
